According to patent US8178489B2, “Formulation for aviptadil” (MondoBiotech AG, priority 2005, dated 2012):

How the values were obtained:
[1] = Stability of Aviptadil formulations: purity and assay (quantity) of Aviptadil by HPLC versus day zero
[2] = tested on: patients suffering from pulmonary hypertension; test: Inhaled administration of Aviptadil by patients with pulmonary hypertension; assay type: in vivo, human; details: for decrease in pulmonary vascular resistance: vs baseline
Text: The following provides clinical examples for drug dosages, safety and efficacy for inhaled administration by chronically ill patients of the medicament formulation at pH values between 5.3-6.0.

[3] = tested on: patients suffering from acute respiratory distress syndrome; test: Intravenous infusion of Aviptadil in patients with acute respiratory distress syndrome; assay type: in vivo, human; details: intravenous infusion 50 pmol/kg bodyweight/hr for 12 hrs
Text: The following provides clinical examples for drug dosages, safety and efficacy for infused administration of the medicament formulation at pH values between 5.3-6.0 for patients with acute life threatening conditions like respiratory distress syndrome due to sepsis, burns, gas intoxications, and ischemia.

[4] = isotonic salt solutions between 30° C. to 60° C.; cited from earlier work
[5] = pH 4.0, 0.15 M acetic acid/sodium acetate buffer, 25° C. (closed) for 14 days
[6] = pH 5.0, 0.15 M acetic acid/sodium acetate buffer, 25° C. (closed) for 14 days
[7] = pH 5.0, 0.15 M citric acid/trisodium citrate buffer/1 mM EDTA, 25° C. (closed) for 13 days
[8] = pH 5.0, 0.15 M phosphoric acid/trisodium phosphate buffer, 2-8° C. (closed) for 31 days
[9] = pH 5.0, 0.15 M phosphoric acid/trisodium phosphate buffer, 25° C. (closed) for 13 days and 2-8° C. for 18 days
[10] = pH 6.0, 0.15 M acetic acid/sodium acetate buffer, 25° C. (closed) for 14 days
[11] = pH 6.0, 0.15 M citric acid/trisodium citrate buffer/1 mM EDTA, 25° C. (closed) for 13 days
[12] = pH 6.0, 0.15 M phosphoric acid/trisodium phosphate buffer, 2-8° C. (closed) for 31 days
[13] = pH 6.0, 0.15 M phosphoric acid/trisodium phosphate buffer, 25° C. (closed) for 13 days and 2-8° C. for 18 days
[14] = pH 7.0, 0.15 M acetic acid/sodium acetate buffer, 25° C. (closed) for 14 days
[15] = pH 7.0, 0.15 M citric acid/trisodium citrate buffer/1 mM EDTA, 25° C. (closed) for 13 days
[16] = pH 7.0, 0.15 M phosphoric acid/trisodium phosphate buffer, 2-8° C. (closed) for 31 days
[17] = pH 7.0, 0.15 M phosphoric acid/trisodium phosphate buffer, 25° C. (closed) for 13 days and 2-8° C. for 18 days
[18] = patient with IPAH, inhaled 100 micrograms single dose
[19] = patient with pulmonary hypertension associated to chronic obstructive pulmonary disease, inhaled 100 micrograms single dose
[20] = patient with pulmonary hypertension associated to chronic obstructive pulmonary disease, inhaled 200 micrograms single dose
[21] = patient with pulmonary hypertension associated to post-VSD, inhaled 100 micrograms single dose
[22] = patient with pulmonary hypertension associated to scleroderma (CREST syndrome), inhaled 100 micrograms single dose
[23] = patient with pulmonary hypertension associated with extrinsic allergic alveolitis, inhaled 100 micrograms single dose
[24] = patient with acute respiratory distress syndrome due to sepsis from peritonitis
[25] = patient with acute respiratory distress syndrome

SMILES: CC[C@H](C)[C@H](NC(=O)[C@H](CO)NC(=O)[C@H](CC(N)=O)NC(=O)[C@H](CC(C)C)NC(=O)[C@H](Cc1ccc(O)cc1)NC(=O)[C@H](CCCCN)NC(=O)[C@H](CCCCN)NC(=O)[C@@H](NC(=O)[C@H](C)NC(=O)[C@H](CCSC)NC(=O)[C@H](CCC(N)=O)NC(=O)[C@H](CCCCN)NC(=O)[C@H](CCCNC(=N)N)NC(=O)[C@H](CC(C)C)NC(=O)[C@H](CCCNC(=N)N)NC(=O)[C@@H](NC(=O)[C@H](Cc1ccc(O)cc1)NC(=O)[C@H](CC(N)=O)NC(=O)[C@H](CC(=O)O)NC(=O)[C@@H](NC(=O)[C@H](Cc1ccccc1)NC(=O)[C@@H](NC(=O)[C@H](C)NC(=O)[C@H](CC(=O)O)NC(=O)[C@H](CO)NC(=O)[C@@H](N)Cc1c[nH]cn1)C(C)C)[C@@H](C)O)[C@@H](C)O)C(C)C)C(=O)N[C@@H](CC(C)C)C(=O)N[C@@H](CC(N)=O)C(N)=O [Aviptadil]
- % Loss in Assay ([1]; Aviptadil concentration 0.033 mg/mL, 0.12 M citrate buffer, pH 5.7 at 2-8° C. for 10 weeks): −6.5%
- % Loss in Assay ([1]; Aviptadil concentration 0.033 mg/mL, 0.15 M sodium chloride at 2-8° C. for 10 weeks): −7.9%
- % Loss in Assay ([1]; Aviptadil concentration 0.066 mg/mL, 0.12 M citrate buffer, pH 5.7 at 2-8° C. for 10 weeks): +1.15%
- % Loss in Assay ([1]; Aviptadil concentration 0.066 mg/mL, 0.15 M sodium chloride at 2-8° C. for 10 weeks): −2.7%
- % Loss in Assay ([1]; Aviptadil concentration 2 mg/mL, 0.15 M sodium chloride at 2-8° C. for 10 weeks): −1.7%
- increase of shelf life ([1]; Aviptadil concentration increased from 0.033 mg/mL to 0.066 mg/mL): about 3 fold
- purity of sample ([1]; at the different concentrations of Aviptadil (Example 2)): did not show any significant change
- shelf life predicted by extrapolation ([1]; extrapolation of the 10 weeks 5° C. data): at least 2 years
- pH at which Aviptadil is most stable ([1]; from Tables 1-4, pH 4 to 7): ~6
- % Loss in Assay [1, 5]: −14.8%
- % Loss in Purity [1, 5]: −11.3%
- % Loss in Assay [1, 6]: −11.3%
- % Loss in Purity [1, 6]: −6.3%
- % Loss in Assay [1, 7]: −15.2%
- % Loss in Purity [1, 7]: −3.0%
- % Loss in Assay [1, 8]: −5.5%
- % Loss in Purity [1, 8]: −1.7%
- % Loss in Assay [1, 9]: −17.3%
- % Loss in Purity [1, 9]: −8.1%
- % Loss in Assay [1, 10]: −8.41%
- % Loss in Purity [1, 10]: −1.67%
- % Loss in Assay [1, 11]: −11.9%
- % Loss in Purity [1, 11]: −0.1%
- % Loss in Assay [1, 12]: −3.3%
- % Loss in Purity [1, 12]: +1.2%
- % Loss in Assay [1, 13]: −12.4%
- % Loss in Purity [1, 13]: −4.7%
- % Loss in Assay [1, 14]: −15.21%
- % Loss in Purity [1, 14]: −6.15%
- % Loss in Assay [1, 15]: −28.4%
- % Loss in Purity [1, 15]: −17.1%
- % Loss in Assay [1, 16]: −8.7%
- % Loss in Purity [1, 16]: −2.7%
- % Loss in Assay [1, 17]: −31.8%
- % Loss in Purity [1, 17]: −23.5%
- cardiac output [2, 18]: increase
- irritation of the lungs [2, 18]: without any irritation of the lungs
- mean arterial pulmonary pressure [2, 18]: decrease
- systemic side effects [2, 18]: no systemic side effects
- decrease in pulmonary vascular resistance [2, 18]: 20%
- irritation of the lungs [2, 19]: without any irritation of the lungs
- mean arterial pulmonary pressure [2, 19]: decrease
- systemic side effects [2, 19]: no systemic side effects
- decrease in pulmonary vascular resistance [2, 19]: 20%
- cardiac output [2, 20]: increase
- irritation of the lungs [2, 20]: without any irritation of the lungs
- mean arterial pulmonary pressure [2, 20]: decrease
- systemic side effects [2, 20]: no systemic side effects
- decrease in pulmonary vascular resistance [2, 20]: 25%
- cardiac output [2, 21]: increase
- irritation of the lungs [2, 21]: without any irritation of the lungs
- mean arterial pulmonary pressure [2, 21]: decrease
- systemic side effects [2, 21]: no systemic side effects
- decrease in pulmonary vascular resistance [2, 21]: 21%
- cardiac output [2, 22]: increase
- irritation of the lungs [2, 22]: without any irritation of the lungs
- systemic side effects [2, 22]: no systemic side effects
- decrease in pulmonary vascular resistance [2, 22]: 14%
- cardiac output [2, 23]: increase
- irritation of the lungs [2, 23]: without any irritation of the lungs
- mean arterial pulmonary pressure [2, 23]: decrease
- systemic side effects [2, 23]: no systemic side effects
- decrease in pulmonary vascular resistance [2, 23]: 21%
- patient outcome [3, 24]: survived and was discharged from intensive care unit and hospital for rehabilitation
- systemic side effects [3, 24]: no systemic side effects
- patient outcome [3, 25]: survived and was discharged from intensive care unit and hospital
- systemic side effects [3, 25]: no systemic side effects
- lability [4]: acid-labile and thermo-labile
